The supplement of paper PMC3334620
Over roughly 33,000 sequences, “E-score (-0.5 to 0.5)” has its median near -0.035; the highest 2% begin near 0.34. The list shows a part of the results.

What follows are sequences tested against T1, Mot3 (UniProt P54785) (assay: PBM E-score (8-mer binding enrichment) (E-score (-0.5 to 0.5)); higher = stronger / more preferred TF binding; most listed sequences are background and not binding sites). Conditions: protein concentration: 200 nM; construct: GST-full length.
T1 sequence: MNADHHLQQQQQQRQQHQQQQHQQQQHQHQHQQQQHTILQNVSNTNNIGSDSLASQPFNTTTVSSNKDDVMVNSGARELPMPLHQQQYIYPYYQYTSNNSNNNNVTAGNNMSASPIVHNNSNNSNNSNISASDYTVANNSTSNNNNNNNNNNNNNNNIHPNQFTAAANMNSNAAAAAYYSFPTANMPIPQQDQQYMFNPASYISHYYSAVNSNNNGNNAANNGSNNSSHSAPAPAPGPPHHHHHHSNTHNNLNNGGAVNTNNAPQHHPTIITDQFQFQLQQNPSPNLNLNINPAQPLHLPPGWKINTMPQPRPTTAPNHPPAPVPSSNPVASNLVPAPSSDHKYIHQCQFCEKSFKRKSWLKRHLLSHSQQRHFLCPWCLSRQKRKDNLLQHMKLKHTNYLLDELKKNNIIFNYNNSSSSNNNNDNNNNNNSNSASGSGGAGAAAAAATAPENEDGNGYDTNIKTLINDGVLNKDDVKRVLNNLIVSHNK
Procedure, shortened: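 Using PURExpress in vitro transcription/translation, GST-tagged yeast transcription factors were made in full-length or DNA-binding-domain form. These were applied at about 100-200 nM to double-stranded universal all-10-mer Agilent arrays, and bound protein was detected with fluorescent anti-GST. Scans were normalised with masliner before the Universal PBM Analysis Suite assigned E-scores to ungapped eight-base words pooled with their reverse complements.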
With ACGTTAGT the “PBM E-score” value was 0.103.
For CCCCTTCA, the “PBM E-score” value was 0.12.
In the case of GGCAGACC, the “PBM E-score” value is reported as -0.254.
For GCGTACCA, the “PBM E-score” value was 0.0581.
With AGTGGCGC the “PBM E-score” value was -0.296.
ACCTTCGT was tested, and the “PBM E-score” value was 0.095.
With CGTCAGAA the “PBM E-score” value was -0.0792.
In the case of CTCTTTCA, the “PBM E-score” value is reported as -0.184.
In the case of AGGGTGTG, the “PBM E-score” value is reported as 0.0341.
For GAGTCGGC, the “PBM E-score” value was -0.208.
With ATTGGTGC the “PBM E-score” value was -0.0723.
With GCGGCGCA the “PBM E-score” value was -0.264.
GAACAAGA was tested, and the “PBM E-score” value was 0.224.
With CTATACAA the “PBM E-score” value was 0.0964.
TAATAATA was tested, and the “PBM E-score” value was 0.22.
With GGTCCGGA the “PBM E-score” value was -0.139.
CGATGTTC was tested, and the “PBM E-score” value was -0.15.
With TAGGCTCA the “PBM E-score” value was 0.109.
In the case of CAGCACCA, the “PBM E-score” value is reported as -0.254.
CGGAGCGC was tested, and the “PBM E-score” value was -0.097.
For GTTCTGAA, the “PBM E-score” value was 0.28.
AAATAGCC was tested, and the “PBM E-score” value was -0.0956.
With CAGATCCG the “PBM E-score” value was -0.244.
For GGCAGCAC, the “PBM E-score” value was 0.106.
With CTTGGAAC the “PBM E-score” value was 0.0225.
CACAACTG was tested, and the “PBM E-score” value was 0.0712.
GCGTTCTA was tested, and the “PBM E-score” value was -0.106.
For AAAGATGG, the “PBM E-score” value was -0.0558.
CATTATCC was tested, and the “PBM E-score” value was 0.0704.
In the case of CACGGTAC, the “PBM E-score” value is reported as 0.00298.
With CCTGCACC the “PBM E-score” value was -0.0282.
For GAAGTATA, the “PBM E-score” value was -0.0302.
In the case of GAGCATGA, the “PBM E-score” value is reported as -0.12.
In the case of GAGGAGCA, the “PBM E-score” value is reported as -0.138.
ACTAAGTG was tested, and the “PBM E-score” value was 0.00975.
In the case of TCTTGACA, the “PBM E-score” value is reported as 0.204.
CGGTCTAA was tested, and the “PBM E-score” value was -0.109.
For CGGGCGTA, the “PBM E-score” value was -0.0528.
In the case of CCAGAACA, the “PBM E-score” value is reported as -0.027.
For GCAAAGCC, the “PBM E-score” value was -0.0572.
For AAAACTAG, the “PBM E-score” value was 0.121.
In the case of ATCGTTTC, the “PBM E-score” value is reported as 0.0191.
In the case of CTGAACCA, the “PBM E-score” value is reported as 0.0648.
TGAATCCA was tested, and the “PBM E-score” value was -0.0279.
In the case of TGCAGACA, the “PBM E-score” value is reported as 0.0246.
In the case of CTTTCAGA, the “PBM E-score” value is reported as -0.0529.
For AAGGCTGC, the “PBM E-score” value was -0.00639.
In the case of CAACGAGC, the “PBM E-score” value is reported as -0.0853.
With AATCGTGC the “PBM E-score” value was 0.189.
For GTCCAAAA, the “PBM E-score” value was 0.0252.
For AACGACAT, the “PBM E-score” value was 0.206.
AAAAAGTC was tested, and the “PBM E-score” value was 0.00695.
For CTAGTCGA, the “PBM E-score” value was -0.0682.
ACCAGACA was tested, and the “PBM E-score” value was 0.0571.
With GACCATGA the “PBM E-score” value was -0.291.
For AACTTGAT, the “PBM E-score” value was 0.202.
For AGTAGTAT, the “PBM E-score” value was 0.101.
With GGACGTAC the “PBM E-score” value was -0.135.
In the case of CTATACCA, the “PBM E-score” value is reported as -0.00513.
CGAGTCAG was tested, and the “PBM E-score” value was -0.256.
For CAGCTGAG, the “PBM E-score” value was -0.0215.
ACAGCAGC was tested, and the “PBM E-score” value was -0.0207.
CACTCCAG was tested, and the “PBM E-score” value was -0.177.
AATGCCTA was tested, and the “PBM E-score” value was 0.359.
With CGACGGCG the “PBM E-score” value was -0.23.
In the case of ACTTACCT, the “PBM E-score” value is reported as 0.202.
With CGCCAATA the “PBM E-score” value was -0.0174.
For AGTGAGAC, the “PBM E-score” value was -0.249.
TCATGGGA was tested, and the “PBM E-score” value was -0.166.
For CTAGGCGC, the “PBM E-score” value was 0.041.
For GAAGTAAA, the “PBM E-score” value was 0.102.
In the case of AATTAACC, the “PBM E-score” value is reported as 0.0231.
For AAAGCTAT, the “PBM E-score” value was 0.234.
In the case of CATAGAGC, the “PBM E-score” value is reported as -0.239.
In the case of AATGCACC, the “PBM E-score” value is reported as 0.0173.
CTGGAAGC was tested, and the “PBM E-score” value was -0.226.
In the case of AAAGGCCA, the “PBM E-score” value is reported as -0.00692.
AGCAACGC was tested, and the “PBM E-score” value was 0.152.
For ACATTACA, the “PBM E-score” value was 0.357.
For ACCAGTAA, the “PBM E-score” value was 0.016.
For ATACGACA, the “PBM E-score” value was 0.125.
ATAAGAAT was tested, and the “PBM E-score” value was -0.00099.
For ACTGACTC, the “PBM E-score” value was -0.249.
For GATCCATA, the “PBM E-score” value was -0.201.
With CTGAGGTC the “PBM E-score” value was -0.255.
In the case of CAAGTGAC, the “PBM E-score” value is reported as -0.181.
